Data: PubChem BioAssay AID1963576 (National Center for Advancing Translational Sciences (NCATS), 2024)
The whole screen tested about 46,000 compounds, of which about 60 (0.1%) were called active. Not shown: some 3% with an inconclusive outcome. Calls follow the shape of the dose curve; as a rule, active = well fitted inhibition curve with a large enough effect; inconclusive = small, poorly fitted or top-dose-only effect; inactive = no such curve, though single readings can be large or run the other way. Some of the results follow.

test: Primary qHTS assay for Inhibitors of ovarian cancer metastasis using an organotypic tumor microenvironment (TME) model.; also: nearly all actives have a fitted effect of over 65% in size;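 as to activity change, negative = inhibition: plate controls were DMSO wells for no effect and tomatine positive control wells for full effect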; conditions: SKOV3ip1-GFP adhesion/invasion on 3D omental model, fluorescence; series mostly up to 45.8 µM; activity change, negative = inhibition: at the top concentration
Procedure, shortened: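 A 3D layer of primary human omental fibroblasts, mesothelial cells, fibronectin and collagen I, grown 48 hr, received SKOV3ip1-GFP cells in serum-free medium plus compounds at 0.36-46 umol/L. After 2 hr RT and 16 hr 37 C, fixed adherent GFP cells were counted; normalized to DMSO and tomatine.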

outcome, inactive:
CCN1Cc2cccc(C(=O)Nc3ccc(F)cc3)c2C1=O
CCOC(=O)c1ccc(OCC2c3cc(OC)c(OC)cc3CCN2C(=O)Cc2ccc(OC)c(OC)c2)cc1 (stereo not given)
CCOC(=O)c1ccc(NC(=O)Cn2nnc(-c3ccc(C(F)(F)F)cc3)n2)cc1
COC(=O)CNC(c1ccccc1)c1cc(Br)ccc1NC(=O)c1cc(OC)c(OC)c(OC)c1 (stereo not given)
CC1=C(c2ccc(Cl)cc2)S(=O)(=O)N=C1N1CCN(c2cccc(C)c2)C(C)C1 (stereo not given)
Cc1cc(C)c(C#N)c(SCC(=O)Nc2ccccc2C#N)n1
Cc1ccc(-n2ncc(C(=O)N3CCc4ccccc4C3)c2C2CCN(C(=O)OC(C)(C)C)CC2)cc1C
CCn1cc(C(=O)NCCc2ccc(OC)c(OC)c2)c(=O)c2cc(S(=O)(=O)N3CCc4ccccc4C3)ccc21
COc1cccc(CNC(=O)CSc2ncc(S(=O)(=O)c3ccc(C)c(Cl)c3)c(=O)[nH]2)c1
CCS(=O)(=O)c1ncc(Cl)c(C(=O)N(Cc2ccccc2)Cc2ccco2)n1
COc1ccccc1-c1noc(-c2ccc(NCCc3ccccc3)c([N+](=O)[O-])c2)n1
COC(=O)c1ccccc1NC(=O)CN1C(=O)COc2ccccc21
Cc1ccc(C)c(NC(=O)CSc2nncn3c2cc2sccc23)c1
COc1ccc(-c2noc(-c3ccc(NC4CCCCC4)c([N+](=O)[O-])c3)n2)cc1OC
COC(=O)c1cc(NC(=O)Cn2ncc3c2-c2ccccc2OC3)cc(C(=O)OC)c1
N#Cc1ccccc1CSc1nnc(-c2ccccc2)o1
COc1cc(Nc2ncnc3onc(-c4ccc(Cl)cc4)c23)cc(OC)c1
Cc1ccc(-n2c(=O)c3c(C)c(C)sc3n(CC(=O)c3ccc(Cl)cc3)c2=O)cc1C
COc1ccc(C2=NN(CC(=O)NCc3ccccc3Cl)C(=O)CC2)cc1
Fc1cccc(NCc2cccn2-c2nnc(N3CCOCC3)s2)c1
Cc1ccc(CCNC(=O)c2c(C)oc3ncnc(N4CCOCC4)c23)cc1
COCCc1nn2c(=O)cc(COC(=O)c3cccs3)nc2s1
CCOc1ccccc1NC(=O)CN(CCc1ccccc1)S(=O)(=O)c1ccc(C)cc1
COc1ccc(-c2c3c(nc4sc(C(=O)Nc5ccc(Cl)cc5)c(N)c24)CC(C)(C)CC3=O)cc1
CCc1ccccc1NC(=O)C(NS(=O)(=O)c1ccc2c(c1)CCC(=O)N2)c1ccccc1 (stereo not given)
COc1ccc(-c2nc(CCNC(=O)c3cccs3)cs2)cc1OC
O=C(O)Cn1nc(N2CCN(c3ccc(F)cc3)CC2)ccc1=O
CCCCc1ccc(C(=O)Nc2ccc3nc(N(CC)CC)cc(C)c3c2)cc1
COc1cc(OC)c(NC(=O)C2=C(C)C(=O)OC23CCCCC3)cc1Cl
OCc1cnc(SCc2cccc(F)c2)n1Cc1ccc(F)cc1

Activity change, negative = inhibition, inactive:
COc1ccc2c(c1)c(N1CCCC1=O)c(C(=O)Nc1ccc(Cl)cc1C)n2C 27.5%
CNC(=O)c1ccc(NC(=O)c2nsc3ccccc23)cc1 -0.74%
Cc1ccc(-c2csc(=Nc3ccccc3)n2CCCO)cc1 4.39%
CCCCNC(=O)c1ccc(-c2nc(CS(=O)(=O)c3ccc(C)cc3)c(C)o2)cc1 0.314%
Cc1ccc(N2CC(c3nnc(Cc4ccc(F)cc4Cl)o3)CC2=O)cc1 (stereo not given) -3.99%
Cc1ccc(-n2c(SCc3nc(-c4ccccc4C)no3)nnc2-c2ccncc2)cc1C -21.5%
CC(=O)N(C)C1(c2ccccc2)CCN(CCC[C@]2(c3ccc(Cl)c(Cl)c3)CCCN(C(=O)c3ccccc3)C2)CC1 -13%
CCc1ccc(NC(=O)CCS(=O)(=O)c2ccc3c(c2)oc(=O)n3C)cc1 0.347%
CCOC(=O)c1c(-c2ccc(C)cc2)csc1NC(=O)c1ccc(C(C)(C)C)cc1 6.45%
COC(=O)c1ccc(OC)c(Cn2c(=O)n(-c3cccc(Cl)c3)c(=O)c3c2c2cc(C)ccc2n3C)c1 2.51%
COc1ccc(CCNC(=O)CCCn2c(=O)c3ccccc3n(CC(=O)Nc3c(C)cc(C)cc3C)c2=O)cc1OC 6.74%
Cc1ccc(N2CCN(C(=O)CCc3c(C)nc4ncnn4c3C)CC2)c(C)c1 -2.24%
Cc1ccc(C)c(CN2C(=O)c3ccccc3Sc3ccc(C(=O)NC4CCCC4)cc32)c1 10.3%
CC(C)(C)C(=O)OCc1cc(=O)n2nc(C3CCCCC3)sc2n1 4.46%
COc1ccc(-c2nc(CN3CCC(C(=O)NCCN(CC(C)C)CC(C)C)CC3)c(C)o2)cc1OC 3.13%
COc1cccc2cc(-c3nc(Cl)c4c5c(sc4n3)CC(C)CC5)c(=O)oc12 (stereo not given) -2.83%
CCc1ccc(NC(=O)Cn2c(=O)n(Cc3ccccc3)c(=O)c3oc4ccccc4c32)cc1 5.31%
COc1ccc(NC(=O)CSc2nc3c(c(=O)[nH]2)CN(Cc2ccccc2)CC3)cc1Cl 1.68%
Cc1ncc(CO)c2c1Oc1nc(-c3ccccc3F)nc(SCC(=O)N3CCCCC3)c1C2 2.33%
CCOc1cc(C(=O)Nc2c(NC)c3ccccc3oc2=O)cc(OCC)c1OCC -12.9%
CCc1ccc(NC(=O)c2cnn(-c3c(C)cccc3C)c2C2CCNCC2)cc1 -8%
Cc1ccc(S(=O)(=O)c2cn(C)c3cc(N4CCCC4)c(F)cc3c2=O)c(C)c1 -1.11%
Cc1oc(-c2ccc(Cl)cc2)nc1CSc1nnc(C)n2c1cc1sccc12 5.2%
Cc1ccc(CCNc2nc3ccccc3c3nc(-c4ccccc4)nn23)cc1 0.955%
CCCNC(=O)C1CCN(c2cc(C)nc3c(-c4ccc(OC)c(OC)c4)c(C)nn23)CC1 -15.1%
CCOc1ccc(N2CC(c3nc4ccccc4n3CCC3CCCCC3)CC2=O)cc1 (stereo not given) 3.59%
COc1ccc(CN2C(=O)N(c3ccc(F)cc3)C(=O)C2CC(=O)Nc2ccccc2)cc1 (stereo not given) -0.226%
CCn1c(=O)cc(OCC(=O)NCc2ccc(F)cc2Cl)c2ccccc21 -0.91%
CCOC(=O)c1ccc(N2C(=O)c3[nH]nc(-c4ccc(OC)cc4)c3C2c2ccc(C)cc2)cc1 (stereo not given) -17.3%
CCOCCCNC(=O)c1c(NC(=O)c2cc(=O)c3cc(C)c(C)cc3o2)sc2c1CCC2 -5.88%
COc1ccc2sc(N(Cc3cccnc3)C(=O)c3ccco3)nc2c1 2.75%
CCc1cccc(C)c1NC(=O)Nc1csc2c1CCCC2 13%
O=C1CN(C(=O)c2ccccc2)C(c2ccc(F)cc2)c2cc(Br)ccc2N1 (stereo not given) 3.09%
Cc1cccc(CS(=O)(=O)CC2Nc3ccc(C(=O)NCc4ccccc4Cl)cc3NC2=O)c1 (stereo not given) 2.63%
O=C(NCCc1c[nH]c2ccccc12)Nc1ccccc1C(F)(F)F -2.41%
COc1cc(C(=O)Nc2ccc(OCc3cc(=O)n4ccc(C)cc4n3)cc2)cc(OC)c1OC 20.3%
CCCn1c2ccccc2c2cnn(CC(=O)N(CCCOC(C)C)Cc3ccco3)c(=O)c21 0.821%
COc1ccc(N2CCN(C(CNS(=O)(=O)c3c(C)cc(C)cc3C)c3ccco3)CC2)cc1 (stereo not given) -13.2%
O=C(Cn1c(=O)n(Cc2ccc(F)cc2)c(=O)c2sc3ccccc3c21)NCc1ccccc1Cl 1.06%
N#Cc1c(C(F)(F)F)cc(-c2cccs2)nc1SCC(=O)Nc1ccc(Cl)cc1 3.64%
Cc1ccn2c(Nc3ccc4c(c3)OCO4)c(-c3ccco3)nc2c1 -7.76%
CCOc1ccc(C(=O)Nc2ccc(-c3nc4cc(C(C)C)ccc4o3)cc2)cc1Cl 2.19%
CCc1cccc(NC(=O)c2nc(-c3ccncc3)no2)c1 7.11%
COc1cccc(CNC(=O)N2CCC(CN3CCC(C)CC3)CC2)c1 0.98%
CCc1cccc(C)c1NC(=O)CN1C(=O)c2c(c3ccccc3n2C)C1c1ccc(OC)cc1 (stereo not given) -1.73%
Clc1ccc(CNc2nc3ccccc3c3nc(-c4cccnc4)nn23)cc1 5.08%
CCn1ccc2cc(S(=O)(=O)N3CCC(C(=O)NCCc4ccc(SC)cc4)CC3)ccc21 1.32%
Cn1nnc2c(N3CCCCC3)ncnc21 -1.38%
Cc1ccc(CN(C(=O)COc2ccc(C(C)(C)C)cc2)C2CCS(=O)(=O)C2)o1 (stereo not given) -18.9%
COc1cc2cc(CNc3ccc(C)cc3)c(=O)n(CC(=O)Nc3ccc(C(C)C)cc3)c2cc1OC 6.84%
CN(C)c1ccc(CNC(=O)CCC(=O)N2Cc3ccccc3Oc3ncccc32)cc1 -0.988%
COc1ccccc1NC(=O)c1ccccc1NC(=O)c1ccccc1 -10.8%
COc1ccc(NC(=O)CSc2nc(-c3ccc(OC)cc3)[nH]c2-c2ccc(F)cc2)cc1 -9.89%
COCCCNC(=O)Nc1cc(C(=O)NCc2ccc(OC)cc2)ccc1N1CCCC1 -13.1%
COc1cccc(CCNC(=O)c2c(O)nc3cc(C)ccn3c2=O)c1 67.9%
CCCCN(C)C(=O)CN1C(=O)CCn2nc(-c3cn(C)c4ccccc34)cc21 -9.03%
CC1=C(C(N)=O)C(c2cccc(F)c2)n2nc(SCc3ccccc3)nc2N1 (stereo not given) -6.53%
COC(=O)c1ccccc1NC(=O)c1ccc2c(c1)CCN2S(=O)(=O)c1ccc(C)cc1 4.46%
O=c1cc(-c2ccccc2)n2c(SCc3ccc([N+](=O)[O-])cc3)nnc2[nH]1 -0.809%
O=C(CCCn1c(=O)c2sccc2n(Cc2ccc(F)cc2Cl)c1=O)NCc1ccc2c(c1)OCO2 -9.52%
COc1ccc2cc(CNc3ccc(C)cc3)c(=O)n(CC(=O)Nc3ccc(OC)c(Cl)c3)c2c1 42.9%
CCc1ccc(C(=O)c2cnc3ccc(C)cc3c2S(=O)(=O)c2ccc(OC)cc2)cc1 -8.85%
COc1ccccc1CNC(=O)c1cc(Sc2cccc(Cl)c2)nc2ccccc12 -12.5%
O=C(Nc1cccc(Cl)c1)c1ccc2nc(Cc3ccccc3)oc2c1 -0.265%
Cc1ccccc1Nc1ncnc2c1c(-c1ccccc1)cn2-c1ccc(F)cc1 2.72%
